Assay results reported in patent US20230122503A1, “ANTI-PSMA RADIOCONJUGATES AND USES THEREOF” (Janssen Biotech, Inc., priority 2021, published 2023).

Molecular target: T1, recombinant human ECD (human PSMA) (Homo sapiens, UniProt Q04609)
T1 construct: made in house
Assay: SPR (BIACORE 8K) binding of anti-PSMA antibodies to recombinant human PSMA ECD
Conditions: antibody captured on anti-Fc C1 chip, PSMA antigen titrated, 1:1 Langmuir model
Description: The binding affinity of purified anti-PSMA antibodies to the recombinant human ECD was determined by surface plasmon resonance (SPR) using a BIACORE 8K instrument. The antibodies were captured on a goat anti-Fc antibody-modified C1 chip and titrated with 3-fold serial dilutions of PSMA antigen spanning concentrations of 1 nM to 11.1 nM. The association and dissociation were monitored for 3 and 15 minutes, respectively, using a flow rate of 50 μL/min. Raw binding data was referenced by subtracting the analyte binding signals from blanks and analyzed using a 1:1 Langmuir binding model using the Biacore Insight evaluation software to obtain the kinetics which were used to calculate the binding affinity.

T1 sequence (Q04609 with tags, fused parts or gaps): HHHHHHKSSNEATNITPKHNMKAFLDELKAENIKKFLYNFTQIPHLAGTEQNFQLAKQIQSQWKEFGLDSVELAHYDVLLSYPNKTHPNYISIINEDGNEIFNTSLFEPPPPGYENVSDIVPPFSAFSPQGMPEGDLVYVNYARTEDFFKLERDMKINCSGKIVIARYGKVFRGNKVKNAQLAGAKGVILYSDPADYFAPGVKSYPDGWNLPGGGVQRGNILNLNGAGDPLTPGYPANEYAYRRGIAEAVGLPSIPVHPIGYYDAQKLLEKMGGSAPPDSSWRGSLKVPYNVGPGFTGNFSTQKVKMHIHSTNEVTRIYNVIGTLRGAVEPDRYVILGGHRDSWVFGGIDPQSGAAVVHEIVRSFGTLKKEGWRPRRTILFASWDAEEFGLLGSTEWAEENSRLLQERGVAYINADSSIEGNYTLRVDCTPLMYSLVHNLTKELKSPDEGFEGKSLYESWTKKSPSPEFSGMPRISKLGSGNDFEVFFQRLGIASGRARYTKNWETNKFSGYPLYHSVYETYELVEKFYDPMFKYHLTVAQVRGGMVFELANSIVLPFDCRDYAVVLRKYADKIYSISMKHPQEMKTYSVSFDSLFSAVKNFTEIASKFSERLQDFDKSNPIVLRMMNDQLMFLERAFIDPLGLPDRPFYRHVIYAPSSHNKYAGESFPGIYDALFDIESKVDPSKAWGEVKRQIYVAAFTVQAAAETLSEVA

B1: PSMB1157 (antibody)
heavy: EVQLVESGGGVVQPGRSLRLSCAASVRTFSGYGMHWVRQVPGKGLEWVAVISYDGSNRYYADSVKGRFTISRDNSKNTLYLQMNSLRTEDTAVYYCARDGNWGSLDLYFDLWGRGTLVTVSS[human IgG1 constant region not given here]
light: QSVLTQPPSVSGAPGQRVTISCTGSSSNIGADYDVHWYQQLPGTAPKLLIYVNNNRPSGVPDRFSGSRSGTSASLAITGLQADDEADYYCQSYDNTLSGVVFGGGTKLTVLGQPKAAPSVTLFPPSSEELQANKATLVCLISDFYPGAVTVAWKADSSPVKAGVETTTPSKQSNNKYAASSYLSLTPEQWKSHRSYSCQVTHEGSTVEKTVAPTECS
B1 was tested. Which Koff did it give?
Its Koff is 0.000274 s⁻¹.

What about the Kon of the same molecule?
Its Kon is 194000 M⁻¹ s⁻¹.
